These are yes or no findings as the source states them, for the method shown. Binding seen in cells or lysates may run through a third protein. Some binding calls cover weakened binding; strength is not graded here.
What was measured:
[1] = target: T1, Strep-CDAN1 HMHA2* (R251A/R255A/R258A) (human) (UniProt Q8IWY9); assay: pull-down; Strep-Tactin pulldown of transiently transfected ST-CDAN1 variants from Flp-In 293 T-REx lysates; endogenous ASF1A, ASF1B and CDIN1 detected by immunoblotting; IP buffer with 1% Triton X-100, 1 hr at 4 °C
T1 sequence: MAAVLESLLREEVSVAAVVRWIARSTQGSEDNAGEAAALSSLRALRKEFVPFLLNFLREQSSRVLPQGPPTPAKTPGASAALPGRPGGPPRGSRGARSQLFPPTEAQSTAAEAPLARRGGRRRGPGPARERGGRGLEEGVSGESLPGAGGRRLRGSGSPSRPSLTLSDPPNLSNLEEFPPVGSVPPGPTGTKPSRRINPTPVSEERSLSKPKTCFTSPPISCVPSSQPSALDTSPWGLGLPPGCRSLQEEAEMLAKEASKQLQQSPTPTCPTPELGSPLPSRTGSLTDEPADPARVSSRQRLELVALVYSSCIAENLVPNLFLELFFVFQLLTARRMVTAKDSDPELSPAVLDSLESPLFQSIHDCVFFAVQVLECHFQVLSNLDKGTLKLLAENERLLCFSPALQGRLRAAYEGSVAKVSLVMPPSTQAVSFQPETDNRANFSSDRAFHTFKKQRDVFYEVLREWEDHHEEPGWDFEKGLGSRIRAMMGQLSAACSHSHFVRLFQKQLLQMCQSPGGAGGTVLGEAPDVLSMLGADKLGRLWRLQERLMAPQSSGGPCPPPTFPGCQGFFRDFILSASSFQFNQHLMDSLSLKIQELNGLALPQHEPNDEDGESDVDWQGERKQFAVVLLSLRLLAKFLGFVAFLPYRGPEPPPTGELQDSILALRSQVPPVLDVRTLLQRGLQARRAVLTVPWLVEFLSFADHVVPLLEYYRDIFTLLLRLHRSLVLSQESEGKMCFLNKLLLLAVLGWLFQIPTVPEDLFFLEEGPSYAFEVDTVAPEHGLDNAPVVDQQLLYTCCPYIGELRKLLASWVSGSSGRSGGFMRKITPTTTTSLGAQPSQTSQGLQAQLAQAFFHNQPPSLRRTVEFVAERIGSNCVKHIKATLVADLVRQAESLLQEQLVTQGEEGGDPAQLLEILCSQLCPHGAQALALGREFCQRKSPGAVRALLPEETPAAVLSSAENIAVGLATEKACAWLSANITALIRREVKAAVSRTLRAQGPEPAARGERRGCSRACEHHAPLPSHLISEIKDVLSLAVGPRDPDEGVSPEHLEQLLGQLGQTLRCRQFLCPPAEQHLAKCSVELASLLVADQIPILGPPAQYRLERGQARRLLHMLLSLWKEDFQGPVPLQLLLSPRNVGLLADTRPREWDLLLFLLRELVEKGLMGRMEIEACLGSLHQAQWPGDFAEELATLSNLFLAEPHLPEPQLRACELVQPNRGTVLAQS

[2] = target: T2, Strep-CDAN1 BDA1* (M824A/R825A/K826A) (human) (UniProt Q8IWY9); assay: as above
T2 sequence: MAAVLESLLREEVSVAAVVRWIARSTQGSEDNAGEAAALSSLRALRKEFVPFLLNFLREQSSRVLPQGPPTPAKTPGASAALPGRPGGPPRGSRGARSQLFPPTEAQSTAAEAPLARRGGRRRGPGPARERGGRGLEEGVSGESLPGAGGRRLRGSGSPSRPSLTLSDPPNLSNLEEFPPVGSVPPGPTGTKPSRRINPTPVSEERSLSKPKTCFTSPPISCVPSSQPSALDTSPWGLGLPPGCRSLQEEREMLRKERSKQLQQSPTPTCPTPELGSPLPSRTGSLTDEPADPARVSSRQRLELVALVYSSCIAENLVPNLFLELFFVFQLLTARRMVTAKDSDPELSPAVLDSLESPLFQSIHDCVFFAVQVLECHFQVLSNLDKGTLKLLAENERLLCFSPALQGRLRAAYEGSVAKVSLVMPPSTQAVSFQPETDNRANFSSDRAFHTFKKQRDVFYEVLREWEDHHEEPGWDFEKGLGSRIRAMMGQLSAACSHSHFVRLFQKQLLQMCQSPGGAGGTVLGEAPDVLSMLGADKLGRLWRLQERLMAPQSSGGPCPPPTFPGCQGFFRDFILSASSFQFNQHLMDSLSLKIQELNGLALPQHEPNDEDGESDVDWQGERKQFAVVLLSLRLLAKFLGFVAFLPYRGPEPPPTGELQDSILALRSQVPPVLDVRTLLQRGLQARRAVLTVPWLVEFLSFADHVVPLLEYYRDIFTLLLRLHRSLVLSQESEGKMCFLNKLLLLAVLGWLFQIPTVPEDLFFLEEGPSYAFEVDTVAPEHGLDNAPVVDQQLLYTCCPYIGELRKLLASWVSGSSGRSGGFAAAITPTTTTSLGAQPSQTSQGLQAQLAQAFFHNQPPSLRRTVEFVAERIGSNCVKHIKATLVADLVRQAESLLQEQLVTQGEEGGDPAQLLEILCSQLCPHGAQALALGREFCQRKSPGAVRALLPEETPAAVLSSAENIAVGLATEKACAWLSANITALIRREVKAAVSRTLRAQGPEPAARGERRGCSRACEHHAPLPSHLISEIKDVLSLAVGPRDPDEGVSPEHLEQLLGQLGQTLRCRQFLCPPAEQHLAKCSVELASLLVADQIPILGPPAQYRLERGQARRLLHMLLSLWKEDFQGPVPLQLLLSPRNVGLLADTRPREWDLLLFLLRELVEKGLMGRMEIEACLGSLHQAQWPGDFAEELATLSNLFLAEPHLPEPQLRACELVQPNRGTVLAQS

binding [1]: binds
binding [2]: binds
B1: FLAG-tagged CDIN1 (F-CDIN1) (natural protein, UniProt Q9Y2V0 1-281, looked up)
chain: MILTKAQYDEIAQCLVSVPPTRQSLRKLKQRFPSQSQATLLSIFSQEYQKHIKRTHAKHHTSEAIESYYQRYLNGVVKNGAAPVLLDLANEVDYAPSLMARLILERFLQEHEETPPSKSIINSMLRDPSQIPDGVLANQVYQCIVNDCCYGPLVDCIKHAIGHEHEVLLRDLLLEKNLSFLDEDQLRAKGYDKTPDFILQVPVAVEGHIIHWIESKASFGDECSHHAYLHDQFWSYWNRFGPGLVIYWYGFIQELDCNRERGILLKACFPTNIVTLCHSIA
notes: C15orf41); cDNA synthesized by IDT; source: Expi293, transiently transfected, in lysate and purified in complexes (anti-FLAG, Strep-Tactin); not shown: 3xFLAG, N-terminal, kept

— publication PMC11911400, “Mechanism of ASF1 engagement by CDAN1” (Nature Communications, 2025)
